Several values for one entry are separate records, joined by “and”; a condition that tells them apart may be missing. Equal values may be shown once. In all, about 350,000 compounds went through this assay and about 31,000 (8.9%) were called active. Inconclusive means that the source gave no clear call. Such entries were picked first, then a sample of the others. The call rests on the fitted dose curve; in most records, active means well fitted inhibition curve with a large enough effect; inconclusive means small, poorly fitted or top-dose-only effect; inactive means no such curve, though single readings can be large or run the other way. Potencies beside an inconclusive call are fits to weak or partial responses and may not hold up. Some structures have more than one record in an assay (separate samples or runs), and their calls can disagree.
These compounds were tested against Histone-lysine N-methyltransferase EHMT2 (Homo sapiens) (UniProt Q96KQ7) (assay: qHTS Assay for Inhibitors of Histone Lysine Methyltransferase G9a). Conditions: G9a H3K9 monomethylation, AlphaScreen, 2 h; activity, negative = inhibition: at 59 µM (top of the series) unless noted.
Method in brief: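 Readings reflect AlphaScreen signal from monomethyl-H3K9 antibody detection. HMT at 20 nM; substrate b-H3K9 500 nM; cofactor SAM 20 uM; 2 h RT reaction; compounds tested as titrations in qHTS with 15 min preincubation.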
Further: nearly all actives have a fitted effect of over 75% in size.
On the % scale 0 is the no-effect control and ±100 the full control effect; potency means the concentration at half of the fitted maximal effect; tags describe the fitted curve by direction and shape.

Sequence of UniProt Q96KQ7 (Q96KQ7 whole entry, looked up): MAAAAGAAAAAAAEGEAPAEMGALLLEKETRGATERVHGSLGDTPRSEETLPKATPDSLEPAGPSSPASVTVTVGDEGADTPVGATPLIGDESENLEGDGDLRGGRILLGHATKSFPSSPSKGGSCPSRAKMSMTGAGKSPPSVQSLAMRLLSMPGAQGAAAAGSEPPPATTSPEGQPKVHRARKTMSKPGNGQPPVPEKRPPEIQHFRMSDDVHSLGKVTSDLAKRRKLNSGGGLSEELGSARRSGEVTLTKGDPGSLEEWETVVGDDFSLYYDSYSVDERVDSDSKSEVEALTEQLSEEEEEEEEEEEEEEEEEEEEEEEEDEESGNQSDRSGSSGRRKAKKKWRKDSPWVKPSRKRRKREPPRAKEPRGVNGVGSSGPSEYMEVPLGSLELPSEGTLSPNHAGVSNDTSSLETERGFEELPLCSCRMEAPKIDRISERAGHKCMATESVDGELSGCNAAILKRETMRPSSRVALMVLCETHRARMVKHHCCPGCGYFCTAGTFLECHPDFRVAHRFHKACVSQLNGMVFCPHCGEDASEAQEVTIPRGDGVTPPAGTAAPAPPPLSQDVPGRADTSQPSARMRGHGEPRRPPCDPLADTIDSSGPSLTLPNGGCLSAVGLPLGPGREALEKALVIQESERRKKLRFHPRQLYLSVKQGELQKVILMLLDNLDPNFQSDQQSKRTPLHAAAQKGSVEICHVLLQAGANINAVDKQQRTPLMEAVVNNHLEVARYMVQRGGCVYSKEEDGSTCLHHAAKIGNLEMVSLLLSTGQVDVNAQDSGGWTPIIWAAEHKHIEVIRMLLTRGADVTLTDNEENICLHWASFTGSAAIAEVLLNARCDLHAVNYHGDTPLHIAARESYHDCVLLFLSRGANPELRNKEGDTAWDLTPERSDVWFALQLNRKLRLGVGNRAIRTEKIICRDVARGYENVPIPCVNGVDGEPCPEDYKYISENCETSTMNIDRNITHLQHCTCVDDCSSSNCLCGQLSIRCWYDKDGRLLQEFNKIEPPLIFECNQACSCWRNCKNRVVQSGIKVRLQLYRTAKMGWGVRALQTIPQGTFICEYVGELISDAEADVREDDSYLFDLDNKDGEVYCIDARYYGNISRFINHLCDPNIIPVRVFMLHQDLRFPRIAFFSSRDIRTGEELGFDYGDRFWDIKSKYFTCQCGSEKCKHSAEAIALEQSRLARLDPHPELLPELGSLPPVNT

Row | Compound | Potency | activity, negative = inhibition
1 | COc1ccc(OC)c(C2C(C(=O)Nc3ccc(C)cc3C)=C(C)Nc3c(C(=O)Nc4ccc(F)cc4)cnn32)c1 (stereo unspecified) | inactive | –
2 | CCn1c2c(c(=O)n3ncc(C(=O)N4CCN(c5ccccc5)CC4)c13)CN(Cc1ccc(OC)cc1)CC2 | inactive | –
3 | CC(C)c1noc(-c2ccccc2OCC(=O)Nc2ccc([N+](=O)[O-])cc2)n1 | inconclusive: 39.8 µM [inhibitor, partial curve, poor fit] | –
4 | Cc1nn(Cc2ccc(Cl)cc2)c(C)c1NC(=O)/C=C/c1cnn(C)c1 | inconclusive: 89.1 µM [inhibitor, single point] | –
5 | O=C(CN1CCN(S(=O)(=O)c2ccc3ccccc3c2)CC1)N1CCc2ccccc2C1 | inconclusive: 44.7 µM [inhibitor, partial curve] | –
6 | Cc1c(C=O)c(=O)n(-c2ccccc2)n1C | inconclusive: 89.1 µM [inhibitor, partial curve, poor fit] | –
7 | Cc1cc(Cl)cc(C)c1OCCCCCn1ccnc1 | inconclusive: 89.1 µM [inhibitor, single point] | –
8 | C/C(Nc1ccc(F)cc1)=C(/C#N)C(N)=O | inconclusive: 89.1 µM [inhibitor, single point] | –
9 | CCOc1ccccc1CNC(=O)CSc1n[nH]c(-c2ccccc2)n1 | inactive | –
10 | CC(C)C[C@H](NC(=O)C1CC(=O)N(c2ccc3c(c2)OCCO3)C1)C(=O)NC1CCCC1 (stereo partly specified) | inactive | –
11 | CCOC(=O)C1CCN(S(=O)(=O)c2ccc3[nH]c(=O)oc3c2)CC1 | inconclusive: 89.1 µM [inhibitor, single point] | –
12 | O=C(CSc1nnc(-c2ccncc2)n1-c1ccccc1)Nc1ccc(F)cc1 | inconclusive: 35.5 µM [inhibitor, single point] | –
13 | Cc1cc(C)c2nc(N(CCCN(C)C)C(=O)C3=COCCO3)sc2c1 | inconclusive: 50.1 µM [inhibitor, partial curve] | –
14 | CCOC(=O)CCc1c(C)nc2c(-c3ccccc3)c(C)[nH]n2c1=O | inconclusive: 3.98 µM [inhibitor, single point] | –
15 | O=C(CSc1nc2c(sc3ccccc32)c(=O)n1CCCN1CCCC1)NCc1ccco1 | inconclusive: 39.8 µM [inhibitor, single point] | –
16 | CN1CCN(c2ncnc3ccc(-c4ccccc4C(F)(F)F)cc23)CC1 | – | inactive: -3.98% [at 0.501 µM]
17 | COc1ccc(Cl)cc1NC(=O)CSc1nc(=O)n(Cc2ccco2)c2c1CCC2 | inactive | –
18 | O=C(N/N=C\c1c(O)ccc2ccccc12)c1ccc(S(=O)(=O)N2CCCCC2)cc1 | inactive | –
19 | O=C(CCCN=C1NS(=O)(=O)c2ccccc21)OCC(=O)c1ccc(F)cc1 | inconclusive: 79.4 µM [inhibitor, single point] | –
20 | Cc1cccc(OC(C)C(=O)Nc2ccc(N3CCCCC3)cc2)c1 (stereo unspecified) | active: 22.4 µM | –
21 | Cc1ccc(N2C(=O)CS/C2=C(\C(Cl)=C(Cl)Cl)[N+](=O)[O-])cc1 | active: 20 µM | –
22 | CC(OC(=O)CCN=C1NS(=O)(=O)c2ccccc21)C(=O)c1ccccc1 (stereo unspecified) | inconclusive: 89.1 µM [inhibitor, single point] | –
23 | O=C1C2CCCCC2C(=O)N1c1ccc(NC2CCN(Cc3ccccc3)CC2)c([N+](=O)[O-])c1 (stereo unspecified) | inconclusive: 50.1 µM [inhibitor, partial curve] | –
24 | Oc1ccccc1-c1nc2cnccn2c1Nc1ccc2c(c1)OCCO2 | inconclusive: 22.4 µM [inhibitor, single point] | –

Row | Compound | Potency | activity, negative = inhibition
25 | Cc1ccc(S(=O)(=O)NCc2ccc(C(=O)NCCc3ccc(S(N)(=O)=O)cc3)cc2)cc1 | inconclusive: 89.1 µM [inhibitor, single point] | –
26 | Cc1c(Br)c(C(=O)NCc2cc3cc(Cl)ccc3[nH]2)nn1C | inconclusive: 89.1 µM [inhibitor, single point] | –
27 | Cc1ccc(-n2ncc3c(Nc4ccc(Oc5ccccc5)cc4)ncnc32)c(C)c1 | inactive | –
28 | CC(C)C(C)NC(=O)COC(=O)C1CCN(S(=O)(=O)c2ccc3c(c2)OCCO3)CC1 (stereo unspecified) | active: 50.1 µM | –
29 | CCOC(=O)c1ccccc1NC(=O)c1cn(CC(C)C)c(=O)c2cc(OC)c(OC)cc12 | inactive | –
30 | CC(C)NCC(O)c1ccc(O)c(O)c1 (stereo unspecified) | active: 14.1 µM | inactive: -2.28% [at 12.7 µM] and inactive: 11.4% [at 12.7 µM] and inactive: 25.5% [at 12.7 µM]
31 | COc1ccc(-c2csc(N)n2)cc1F | inconclusive: 50.1 µM [inhibitor, partial curve, poor fit] | –
32 | COc1ccc(N2CCC(CNS(=O)(=O)c3cccc(C(F)(F)F)c3)C2)cc1 (stereo unspecified) | inconclusive: 0.891 µM [inhibitor, full curve, poor fit] | –
33 | Cn1c(CNS(=O)(=O)c2ccc(Cl)cc2)n[nH]c1=S | inconclusive: 25.1 µM [inhibitor, single point] | –
34 | Cc1cnc(CN2CCCC(C(=O)c3ccc4c5c(cccc35)CC4)C2)[nH]1 (stereo unspecified) | inconclusive: 44.7 µM [inhibitor, partial curve] | –
35 | CCNc1sc(S(C)(=O)=O)nc1S(=O)(=O)c1ccc(Cl)cc1 | inactive | –
36 | Cc1cc(Cl)c(OCCOCCN2CCN(C)CC2)c(Br)c1 | inconclusive: 25.1 µM [inhibitor, full curve, poor fit] | –
37 | CCOc1ccc(Br)cc1/C(C)=N\NC1=NCCN1 | active: 56.2 µM | –
38 | NC(=O)c1ccc(N2CCCCC2)c(N2C(=O)CCC2=O)c1 | inconclusive: 89.1 µM [inhibitor, single point] | –
39 | CCCNC(=O)Cn1cnc2sc(C(=O)N3CCCC(C(=O)OCC)C3)c(C)c2c1=O (stereo unspecified) | inconclusive: 56.2 µM [inhibitor, partial curve, poor fit] | –
40 | CC(C)(C)Nc1scc(-c2ccccc2)[n+]1-c1ccccc1 | active: 44.7 µM | –
41 | Cc1nc2nc(SCC(=O)Nc3ccccc3Cl)nn2c(C)c1Cc1ccccc1 | inactive | –
42 | COc1ccc(S(=O)(=O)N2CCN(c3ccc(F)cc3)CC2)cc1C(=O)N1CCOCC1 | inconclusive: 10 µM [inhibitor, full curve] | –
43 | CC1CCN(S(=O)(=O)c2ccc(C(=O)Nc3nnc(C4=COCCO4)o3)cc2)CC1 | inconclusive: 89.1 µM [inhibitor, single point] | –
44 | Cn1c(N)c(C(=O)CSc2nc(N)cc(N)n2)c(=O)n(C)c1=O | inconclusive: 89.1 µM [inhibitor, single point] | –
45 | O=C(CSc1nnc2ccccn12)NC(=O)NC1CCCC1 | inactive | –
46 | CCN1C(=O)[C@@H]2Cc3c([nH]c4ccccc34)C(c3cc(OC)c(OC)c(OC)c3)N2C1=S (stereo partly specified) | inconclusive: 79.4 µM [inhibitor, single point] | –
47 | CCOc1ccc(-n2c(O)cc(=O)[nH]c2=O)cc1 | active: 70.8 µM | –
48 | COc1ccc2nc(SCC(=O)N(C)CC(=O)Nc3ccc(F)cc3)[nH]c2c1 | – | inactive: 4.29% [at 0.501 µM]

Row | Compound | Potency | activity, negative = inhibition
49 | Cc1c(C(=O)N2CCC2)oc2ccc(Br)cc12 | inconclusive: 79.4 µM [inhibitor, partial curve, poor fit] | –
50 | Cc1ccc(NC(=O)CNCc2cccs2)c(Br)c1 | inconclusive: 79.4 µM [inhibitor, single point] | –
51 | CCCOc1ccc(C2C(=O)N(C3CCCCCC3)CC(=O)N2CCC2=CCCCC2)cc1OC (stereo unspecified) | inactive | –
52 | COc1cccc(-n2nnnc2SCC(=O)NCc2ccco2)c1 | inconclusive: 56.2 µM [inhibitor, partial curve, poor fit] | –
53 | O=C(NCc1ccccn1)c1ccco1 | inactive | –
54 | C=CC[n+]1c(-c2ccc(OCC)cc2)csc1NNC(=O)Nc1ccccc1 | inconclusive: 25.1 µM [inhibitor, single point] | –
55 | Cc1ccc(N2C(=O)C(Cl)=C(Nc3c(C)n(C)n(-c4ccccc4)c3=O)C2=O)cc1 | active: 5.01 µM | –
56 | CCN(CC)CCNC(=O)c1cc(Nc2ccc(OC)c(OC)c2)nc2ccccc12 | active: 70.8 µM | –
57 | COc1ccc(-c2cc(=O)[nH][nH]2)cc1 | inconclusive: 89.1 µM [inhibitor, single point] | –
58 | O=C(/C=C/c1ccccc1)Nn1cnnc1 | inactive | –
59 | CCOC(=O)[C@@H]1[C@H]2COc3cc(OC)ccc3[C@@H]2N2C(=O)N(c3ccc(OC)cc3)C(=O)[C@]12C | inconclusive: 2.82 µM [inhibitor, partial curve, poor fit] | –
60 | COc1ccc(N(Cc2nnc3n2CCCCC3)C(=O)Nc2cccc(C)c2)cc1Cl | inactive | –
61 | COc1ccc(N2CC(C(=O)N(C)CC(=O)Nc3ccc(Cl)c(C(F)(F)F)c3)CC2=O)c(OC)c1 (stereo unspecified) | inactive | –
62 | COc1ccc(-c2cc(-c3ccccc3O)[nH]n2)cc1 | inactive | –
63 | COc1cccc(OCCNCc2ccccc2)c1 | active: 7.94 µM | –
64 | O=C(COC(=O)CNC(=O)c1sc2ccccc2c1Cl)Nc1c(Cl)cc(Cl)cc1Cl | inactive | –
65 | COc1ccc(NC(=O)C(CC(C)C)NC(=O)C2CCCCC2)cc1 (stereo unspecified) | inactive | –
66 | COc1ccc(C2(c3ccc(OC)cc3)NC(=O)N(CC(=O)N(C)C3CCC(C)CC3)C2=O)cc1 (stereo unspecified) | – | inactive: 12.2% [at 2.33 µM]
67 | CC(=O)c1cc2c(cc1NC(=O)Cn1nc(-c3ccc(C)cc3)ccc1=O)OCO2 | inconclusive: 39.8 µM [inhibitor, single point] | –
68 | Cn1ccnc1C(O)c1cc(C(C)(C)C)c(O)c(C(C)(C)C)c1 (stereo unspecified) | active: 50.1 µM | –
69 | O=C(O)c1cccc(CSc2nnc(-c3ccc(Cl)cc3)o2)c1 | inconclusive: 79.4 µM [inhibitor, single point] | –
70 | Cc1ccc(CN2CC(C(=O)Nc3cc(S(C)(=O)=O)ccc3Cl)CC2=O)cc1 (stereo unspecified) | inconclusive: 63.1 µM [inhibitor, partial curve, poor fit] | –

From PubChem BioAssay AID504332 (National Center for Advancing Translational Sciences (NCATS), 2011)
